Measured values published in PubChem BioAssay AID1745845 (National Center for Advancing Translational Sciences (NCATS), 2022).
Among all 360,000 compounds or so, about 2,600 (0.72%) were called active. The inconclusive results got no clear call from the source; some entries with a clear call stand among them for comparison. The call rests on the fitted dose curve; in most records, active means well fitted inhibition curve with a large enough effect; inconclusive means small, poorly fitted or top-dose-only effect; inactive means no such curve, though single readings can be large or run the other way. Potencies beside an inconclusive call are fits to weak or partial responses and may not hold up.

Assay: Primary qHTS for Inhibitors of ATXN expression; further: nearly all actives have a fitted effect of over 55% in size
Settings: HEK-293 ATXN2-luciferase reporter, luminescence, 24 h; activity change, negative = inhibition: at 57 µM (top of the series)
How it was run: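 qHTS (up to 57 uM final) was run with 24 h compound exposure of reporter cells at 37 °C. Each well was multiplexed: SteadyGlo luminescence measured ATXN2-luciferase expression after a fluorogenic Gly-Phe-AFC viability readout (25 uM final).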
On the % scale 0 is the no-effect control and ±100 the full control effect; potency means the concentration at half of the fitted maximal effect; tags describe the fitted curve by direction and shape.

| Structure (SMILES) | Potency | activity change, negative = inhibition |
| --- | --- | --- |
| O=C(Nc1cccc(C(=O)O)c1)Nc1ccc2c(c1)OCO2 | active: 5.01 µM | – |
| CC(C)CC(=O)NC(=S)NNC(=O)c1ccc([N+](=O)[O-])cc1 | inconclusive: 14.1 µM [inhibitor, partial curve] | – |
| C=CCC[C@@H](Cc1ccc(F)cc1)C(=O)OCCNC(=O)[C@@H](CC=C)CC(=O)N[C@H](CO)Cc1ccccc1 | inconclusive: 25.1 µM [inhibitor, partial curve] | – |
| CN(C)c1ccc(/C=[N+](\[O-])C2N(c3ccccc3)C(=S)SC2(C)C)cc1 (stereo not given) | – | inactive: 16.1% |
| [O-][N+]1=c2ccc(Nc3ccccc3)cc2=NC12CCCCC2 | inconclusive: 39.8 µM [inhibitor, single point] | – |
| CC(C)(C)c1ccc(C(=O)c2c[nH]c(C(=O)NCCCN3CCOCC3)c2)cc1 | – | inactive: 7.07% |
| COc1ccc2cc(/C=C/C(=O)N3CCN(CC(=O)N4CCCCCC4)CC3)ccc2c1 | – | inactive: 6.67% |
| Cc1cc(NC(=O)CSc2nnc(-c3cccnc3)n2Cc2ccccc2)no1 | inconclusive: 21.2 µM [inhibitor, partial curve, poor fit] | – |
| Cc1ccc(Cn2c(CCNc3nc(-c4ccc(Cl)c([N+](=O)[O-])c4)cs3)nc3cc(C(=O)NCCCO)ccc32)cc1 | inconclusive: 35.5 µM [inhibitor, single point] | – |
| CCCCn1nnnc1C(c1ccccc1)N1CCN(c2ncccc2C(F)(F)F)CC1 (stereo not given) | inconclusive: 39.8 µM [inhibitor, single point] | – |
| O=C(OCC(=O)c1c[nH]c2ccccc12)c1cc(S(=O)(=O)N2CCOCC2)ccc1F | inconclusive: 39.8 µM [inhibitor, partial curve, poor fit] | – |
| c1cc(OCCN2CCCCC2)cc(-c2n[nH]c3ccc(-c4ncn[nH]4)cc23)c1 | inconclusive: 19.3 µM [inhibitor, partial curve] | – |
| O=[N+]([O-])c1cccnc1N1CCN(c2ccccc2F)CC1 | – | inactive: 19.2% |
| COCCNC(=S)N(CCc1c(C)[nH]c2ccc(F)cc12)Cc1ccc(C)cc1 | inconclusive: 31.6 µM [inhibitor, single point] | – |
| CCc1sc(C(=O)Nc2ncccc2O)cc1C | inconclusive: 14.1 µM [inhibitor, single point] | – |
| CN(C)c1ccc(NC(=O)c2cnsn2)cc1 | inconclusive: 11.9 µM [inhibitor, partial curve, poor fit] | – |
| O=C(Nc1nnc(C2=COCCO2)o1)c1cccc(Br)c1 | – | inactive: -15% |
| O=C(Oc1c(Cl)cc(Cl)c2cccnc12)c1ccco1 | inconclusive: 39.8 µM [inhibitor, single point] | – |
| CCc1ccc2c(CN3CCN(S(=O)(=O)c4ccccc4F)CC3)cc(=O)oc2c1 | – | inactive: -24.4% |
| C/C(CC1CC2=C(CC1(C)C)C(C)(C)CCC2)=N\NC(N)=S (stereo not given) | inconclusive: 39.8 µM [inhibitor, partial curve, poor fit] | – |
| COc1ccccc1CCNC(=O)C(=O)NCC1CCCN1S(=O)(=O)c1ccccc1 (stereo not given) | inconclusive: 39.8 µM [inhibitor, single point] | – |
| CCOC(=O)[C@]12CCCC=C1N(Cc1ccc(Cl)cc1Cl)C(=O)[C@H](CC(=O)NCc1ccc(OC)c(OC)c1)C2 | inconclusive: 39.8 µM [inhibitor, single point] | – |

| Structure (SMILES) | Potency | activity change, negative = inhibition |
| --- | --- | --- |
| O=c1c(Br)c(Br)cnn1-c1ccccc1 | active: 5.32 µM | – |
| COc1ccc(NC(=O)c2ccc(-c3ccc(-c4noc(C)n4)cc3C)cc2)cc1N1CCN(C)CC1 | inconclusive: 25.1 µM [inhibitor, single point] | – |
| CCn1c(COc2cccc(C)c2C)nnc1SCC(=O)Nc1cc(C)on1 | inconclusive: 42.3 µM [inhibitor, partial curve, poor fit] | – |
| Cc1[nH]c(=S)c(C#N)c(C)c1Cc1ccccc1 | inconclusive: 26.7 µM [inhibitor, single point] | – |
| Cc1ccc(S(=O)(=O)N2CCN(c3nn(C)c(=O)n(C)c3=O)CC2)cc1C | inconclusive: 7.94 µM [inhibitor, partial curve, poor fit] | – |
| COc1ccc(NS(=O)(=O)c2cc3c(cc2C)N(C(C)=O)CCO3)cc1OC | – | inactive: 9.8% |
| Cc1cnc(Nc2ccc(F)cc2Cl)nc1-c1c[nH]c(C(=O)N[C@H](CO)c2cccc(Cl)c2)c1 | active: 24.3 µM | – |
| CCCc1[nH]c2ccc(C#N)cc2c1CCC | inconclusive: 22.4 µM [inhibitor, single point] | – |
| CC(/C=N/Nc1nc(N2CCCCC2)nc(N2CCCCC2)n1)=C\c1ccccc1 | inconclusive: 31.6 µM [inhibitor, single point] | – |
| COc1ccc(Nc2nnc(C)c(=O)[nH]2)c(OC)c1 | – | inactive: 12.6% |
| COC(=O)[C@@]1(Cc2ccc(F)cc2)[C@H]2c3cc(C(=O)N(C)C)n(Cc4ccc(C)o4)c3C[C@H]2CN1C(=O)c1ccccc1 | inconclusive: 39.8 µM [inhibitor, single point] | – |
| C#CCOc1nc2c(c(=O)n(C)c(=O)n2C)n1Cc1ccccc1 | inconclusive: 37.7 µM [inhibitor, single point] | – |
| CCN1CCN(Cc2ccc(NC(=O)c3ccc(C)c(NC(=O)c4cccc5[nH]ccc45)c3)cc2C(F)(F)F)CC1 | inconclusive: 39.8 µM [inhibitor, single point] | – |
| COc1cc(/C=N/N=C2/SCC(=O)N2c2ccc(O)cc2)ccc1O | inconclusive: 42.3 µM [inhibitor, single point] | – |
| CCc1nc2ccc(C(=O)N(C)CCN(C)C)cn2c1N(CC)C(=O)NCCc1ccccc1 | – | inactive: 6.29% |
| COc1ccccc1Cc1c(-c2ccco2)nc2c(C)cc(Br)cn12 | active: 8.91 µM | – |
| CCNc1nc(Oc2ccc(F)cc2)cc(C(F)(F)F)n1 | – | inactive: -4.97% |
| O=C(Cc1ccc(Cl)cc1)Nc1ccccc1N1CCN(C(=O)c2ccccc2)CC1 | inconclusive: 31.6 µM [inhibitor, single point] | – |
| COc1ccc(CCN2CCCn3c2nc2c3c(=O)n(Cc3ccccc3F)c(=O)n2C)cc1OC | inconclusive: 39.8 µM [inhibitor, single point] | – |
| COc1cccc(Nc2nc(C(N)Cc3ccccc3)cs2)n1 (stereo not given) | inconclusive: 39.8 µM [inhibitor, single point] | – |
| COc1ccc(CCC(=O)Nc2ccc(Br)cn2)cc1 | inconclusive: 31.6 µM [inhibitor, single point] | – |
| COc1ccc(NS(=O)(=O)c2cc(C)ccc2C)cc1 | – | inactive: -11.7% |

| Structure (SMILES) | Potency | activity change, negative = inhibition |
| --- | --- | --- |
| N/C(Cc1ccc([N+](=O)[O-])cc1)=N\OC(=O)C(c1ccccc1)c1ccccc1 | inconclusive: 35.5 µM [inhibitor, single point] | – |
| CCCC/C=C1\CCc2c([nH]c3ccccc23)C1=O | – | inactive: 51.8% |
| CCOC(=O)c1c(C)[nH]c(C(=O)CSc2nnnn2-c2ccc(C)cc2)c1C | inconclusive: 15.8 µM [inhibitor, partial curve] | – |
| CC(=O)Nc1cc(-c2ccccc2F)cn2c(-c3cccc(C(F)(F)F)c3)cnc12 | inconclusive: 39.8 µM [inhibitor, single point] | – |
| Cc1cccc2sc(NNC(=O)c3cc(-c4cccs4)nc4ccccc34)nc12 | inconclusive: 39.8 µM [inhibitor, single point] | – |
| CC(C)c1ccc(-c2noc(SCC(=O)N3CCCCC3C)n2)cc1 (stereo not given) | inconclusive: 39.8 µM [inhibitor, partial curve, poor fit] | – |
| CCn1c(=O)c(C(=O)NNC(=O)c2cccc(Cl)c2)c(O)c2ccccc21 | inconclusive: 17.8 µM [inhibitor, partial curve, poor fit] | – |
| CCOc1ncccc1C(=O)Nc1cccc(-c2nnc3n2CCCCC3)c1 | – | inactive: 3.18% |
| CCc1nc2ccccc2c(C(=O)OCC(=O)Nc2ccc(NC(C)=O)cc2)c1C | inconclusive: 39.8 µM [inhibitor, single point] | – |
| COc1ccc(NC(=O)C(=O)Nc2cccc3ccccc23)c(OC)c1 | – | inactive: -9.02% |
| CN1CCc2c(sc(NC(=O)c3ccc([N+](=O)[O-])o3)c2C(N)=O)C1 | inconclusive: 3.16 µM [inhibitor, full curve] | – |
| CS(=O)(=O)c1ccc(Nc2nc(C(N)Cc3ccc(C(F)(F)F)cc3)cs2)cc1 (stereo not given) | inconclusive: 25.1 µM [inhibitor, partial curve, poor fit] | – |
| CCCCN1C(=O)c2ccc(C(=O)Nc3ccc(C)c(S(=O)(=O)N(C)C)c3)cc2C1=O | – | inactive: 1.15% |
| CCOc1ccccc1OCCCCn1c(-c2ccc(Cl)cc2)nc2ccccc2c1=O | – | inactive: -9.35% |
| Oc1ccc(C[C@H]2CNC(=S)N2CC2CCCN2C[C@H](Cc2ccccc2)N2C[C@H](Cc3ccc(O)cc3)N(CC3CCCCC3)C2=S)cc1 (stereo not given in full) | inconclusive: 39.8 µM [inhibitor, single point] | – |
| C(=C\c1ccccc1)/CN1CCN(C(c2nnnn2Cc2ccccc2)C2CC2)CC1 (stereo not given) | – | inactive: -38.6% |
| COc1ccc(N2CCN(C(=O)C3CCN(S(=O)(=O)c4cccc5nonc45)CC3)CC2)cc1 | – | inactive: -3.08% |
| CC(C)CN(C[C@H](O)[C@H](Cc1ccccc1)NC(=O)O[C@H]1CCOC1)S(=O)(=O)c1ccc(N)cc1 | – | inactive: -3.35% |
| COc1ccc(C(CCN2CCCCC2)c2c(OC)cc(OC)c3c(-c4ccccc4)cc(=O)oc23)cc1 (stereo not given) | inconclusive: 31.6 µM [inhibitor, single point] | – |
| O=C(/C=C/c1ccccc1)/C=C/c1ccccc1 | inconclusive: 25.1 µM [inhibitor, single point] | – |
| Cc1ccc2oc(-c3ccc(Cl)cc3)c(O)c(=O)c2c1 | inconclusive: 39.8 µM [inhibitor, single point] | – |
